Laboratory results published in US6503938B1, “2-phenylindoles as antiestrogenic pharmaceutical agents” (Schering Aktiengesellschaft, priority 1994, dated 2003).
The name of at least one read-out is uncertain.

Test system: hormone-sensitive human MCF-7 breast cancer cells
Assay: Cytostatic activity on hormone-sensitive human MCF-7 breast cancer cells (T/C of optical densities)
Type: cell-based
Details: mean of 16 determinations ± SD
[1] = substance concentration 1 · 10^−6 M in the incubation medium
[2] = substance concentration 1 · 10^−7 M in the incubation medium
[3] = substance concentration 1 · 10^−8 M in the incubation medium
[4] = substance concentration 1 · 10^−9 M in the incubation medium

| SMILES | T/C [%] [1] | T/C [%] [2] | T/C [%] [3] | T/C [%] [4] |
| --- | --- | --- | --- | --- |
| CCCCCSCCCCCCCCCCn1c(-c2ccc(O)cc2)c(C)c2cc(O)ccc21 [Compound 1, 5-Hydroxy-2-(4-hydroxyphenyl)-3-methyl-1-[10-(pentylthio)-decyl]-indole] | −1.7 ± 8.4% | 21.0 ± 5.2% | 73.5 ± 16.9% | 104.6 ± 18.6% |
| CCCCC[S+]([O-])CCCCCCCCCCn1c(-c2ccc(O)cc2)c(C)c2cc(O)ccc21 (stereo not shown) [Compound 2, 5-Hydroxy-2-(4-hydroxyphenyl)-3-methyl-1-[10-(pentylsulfinyl)-decyl]-indole] | −8.3 ± 12.6% | −16.0 ± 4.8% | −9.4 ± 3.8% | 65.2 ± 18.9% |
| CCCCCS(=O)(=O)CCCCCCCCCCn1c(-c2ccc(O)cc2)c(C)c2cc(O)ccc21 [Compound 3, 5-Hydroxy-2-(4-hydroxyphenyl)-3-methyl-1-[10-(pentylsulfonyl)-decyl]-indole] | 0.1 ± 6.1% | 3.7 ± 6.2% | 19.2 ± 8.3% | 62.3 ± 12.5% |
| CCCS(=O)(=O)CCCCCCCCCCCCn1c(-c2ccc(O)cc2)c(C)c2cc(O)ccc21 [Compound 4, 5-hydroxy-2-(4-hydroxyphenyl)-3-methyl-1-[12-(propylsulfonyl)-dodecyl]-indole] | 23.0 ± 7.2% | 32.1 ± 7.5% | 71.0 ± 15.2% | 81.1 ± 19.7% |
| CCC[S+]([O-])CCCCCCCCCCCCn1c(-c2ccc(O)cc2)c(C)c2cc(O)ccc21 (stereo not shown) [Compound 5, 5-hydroxy-2-(4-hydroxyphenyl)-3-methyl-1-[12-(propylsulfinyl)-dodecyl]-indole] | 22.0 ± 12.9% | 37.8 ± 10.1% | 81.8 ± 20.3% | 91.7 ± 20.7% |
| Cc1c(-c2ccc(O)cc2)n(CCCCCCCCSc2ccccn2)c2ccc(O)cc12 [Compound 6, 5-hydroxy-2-(4-hydroxyphenyl)-3-methyl-1-[8-(2-pyridinylthio)-octyl]-indole] | 86.5 ± 15.7% | 92.4 ± 15.8% | 95.7 ± 18.6% | 100.3 ± 16.8% |
| CCCS(=O)(=O)N(C)CCCCCCCCCCCn1c(-c2ccc(O)cc2)c(C)c2cc(O)ccc21 [Compound 8, 5-hydroxy-2-(4-hydroxyphenyl)-3-methyl-1-[11-(N-methyl-propylsulfonamido)-undecyl]-indole] | 29.8 ± 14.0% | 56.0 ± 17.6% | 87.4 ± 23.0% | 85.0 ± 25.7% |
| Cc1c(-c2ccc(O)cc2)n(CCCCCCCCCCCN(C)S(=O)(=O)Cc2ccccc2)c2ccc(O)cc12 [Compound 9, 5-hydroxy-2-(4-hydroxyphenyl)-3-methyl-1-[11-(N-methyl-phenylmethanesulfonamido)-undecyl]-indole] | 21.2 ± 8.7% | 39.8 ± 7.8% | 86.4 ± 15.6% | 91.7 ± 21.3% |
| Cc1c(-c2ccc(O)cc2)n(CCCCCCCCC[S+]([O-])CCCC(F)(F)C(F)(F)F)c2ccc(O)cc12 (stereo not shown) [Compound 11, 5-hydroxy-2-(4-hydroxyphenyl)-3-methyl-1-[9-(4,4,5,5,5-pentafluoropentylsulfinyl)-nonyl]-indole] | −14.5 ± 4.0% | −10.8 ± 5.0% | −10.4 ± 4.6% | 38.2 ± 17.0% |
| Cc1c(-c2ccc(O)cc2)n(CCCCCCCCCS(=O)(=O)CCCC(F)(F)C(F)(F)F)c2ccc(O)cc12 [Compound 12, 5-hydroxy-2-(4-hydroxyphenyl)-3-methyl-1-[9-(4,4,5,5,5-pentafluoropentylsulfonyl)-nonyl]-indole] | −9.4 ± 4.9% | −11.1 ± 2.8% | −7.5 ± 3.8% | 66.6 ± 16.9% |
| Cc1c(-c2ccc(O)cc2)n(CCCCCCCCCCSCC(=O)N(C)C(C)C)c2ccc(O)cc12 [Compound 14, 5-hydroxy-2-(4-hydroxyphenyl)-3-methyl-1-[10-[(methyl-iso-propylcarbamoyl)-methylthio]-decyl]-indole] | 14.7 ± 8.1% | 20.5 ± 4.8% | 71.6 ± 12.2% | – |
| CCCCCS(=O)(=O)CCCCOc1ccc(Cn2c(-c3ccc(O)cc3)c(C)c3cc(O)ccc32)cc1 [Compound 15, 5-hydroxy-2-(4-hydroxyphenyl)-3-methyl-1-[4-[4-(pentylsulfonyl)butoxy]-benzyl]-indole] | – | 14.3 ± 3.5% | 20.9 ± 4.8% | 74.4 ± 5.2% |
